# Test results taken from the supplement of paper PMC3334620.
# The full ranking holds about 33,000 sequences; the median of “E-score (-0.5 to 0.5)” is about -0.017, and the highest 2% start at about 0.3. The list shows a part of the results.
# Target: T1, Sut1 (UniProt P53032)
# T1 sequence: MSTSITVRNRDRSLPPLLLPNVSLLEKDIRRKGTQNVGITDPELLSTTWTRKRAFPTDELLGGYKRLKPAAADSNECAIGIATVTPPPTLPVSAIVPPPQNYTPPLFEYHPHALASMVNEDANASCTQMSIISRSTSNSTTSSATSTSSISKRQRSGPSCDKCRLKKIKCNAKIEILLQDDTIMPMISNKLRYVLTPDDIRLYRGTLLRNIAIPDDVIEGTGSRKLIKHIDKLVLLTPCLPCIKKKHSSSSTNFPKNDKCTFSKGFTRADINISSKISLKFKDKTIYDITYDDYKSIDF
# Test: PBM E-score (8-mer binding enrichment) (E-score (-0.5 to 0.5)); higher = stronger / more preferred TF binding; most listed sequences are background and not binding sites
# Conditions: protein concentration: 200 nM; construct: GST-full length
# Procedure, shortened: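 Detection of bound protein used fluorescent anti-GST, with scans normalised by masliner. The proteins were GST-tagged yeast transcription factors applied at about 100-200 nM to universal all-10-mer Agilent arrays made double-stranded by primer extension. Each ungapped eight-base word, pooled with its reverse complement, was scored with an E-score from the Universal PBM Analysis Suite.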
row,Sequence,PBM E-score
1,GGTCGAGA,-0.209
2,ATGTCGAG,0.0304
3,ACTACAAA,0.302
4,TTAGCTAA,0.00949
5,AAGTAATA,0.106
6,GCACACAC,-0.261
7,GTCCACAA,-0.0143
8,ACCTAATG,-0.117
9,CCGCCTAC,0.051
10,AGTTCAAT,-0.104
11,CCAAGAAC,-0.0556
12,TAATCGTA,0.0634
13,CCCAAAAA,-0.0605
14,AGAGGATC,-0.182
15,TCCTGAGA,-0.119
16,CAATCTTA,0.11
17,AACGCGGT,0.0374
18,ACTTTCCC,0.092
19,CTTGTTTA,0.0761
20,GTATGCCA,-0.292
21,CCGTGATC,0.0824
22,ACCTTGCA,0.0126

row,Sequence,PBM E-score
1,ACCAGCGG,-0.131
2,AGCGAAAA,0.0874
3,ATGGCCAG,0.133
4,TCAACGAA,0.037
5,CCCTTTCC,-0.257
6,ACCAACAA,0.299
7,AAAGAGAA,0.163
8,CCTCAAGA,-0.113
9,AGGTAACT,-0.0505
10,GAAATATC,0.068
11,AGTATGTC,-0.079
12,GCCCAAAC,-0.125
13,AGCCGGCC,-0.0862
14,ACCTACTC,-0.0084
15,AAGCTTGA,-0.00902
16,CACGGTCA,-0.0106
17,AAGTCAGA,-0.00235
18,CTTAACCC,0.0641
19,ACTTGCAG,-0.0894
20,CGCCAGTC,-0.189
21,ATAAGCTA,0.144
22,CCCCCAGA,-0.337

row,Sequence,PBM E-score
1,AGAGAAGA,0.0354
2,ACGACGAA,0.119
3,ACTCTACT,0.0401
4,AAAGTCTT,0.00332
5,TTGAAAAA,0.173
6,CGTAATTC,0.0414
7,AACTTATG,0.0687
8,ATTGCGTC,-0.00332
9,CACCCAAC,0.0668
10,ACTTACAG,0.0155
11,CGCGGTCA,-0.0989
12,ACATCGGG,-0.293
13,GAACCTAC,-0.0695
14,ACTTAGTA,0.15
15,AAGCCTGA,-0.208
16,GTACTAGA,0.123
17,AAAATCCC,0.068
18,GCTGACAA,-0.0201
19,CTTGCAAC,0.00418
20,GCCGCAAC,-0.0355
21,ATACAGAG,-0.117
22,ATCAACGC,0.0493

row,Sequence,PBM E-score
1,GGTGCCCA,-0.252
2,AGTACGTG,-0.0556
3,CTCAGGCA,-0.0425
4,AGAAGAAG,0.109
5,CCAGCTAG,-0.27
6,GATAGCGA,0.0801
7,CCTGTGCC,-0.229
8,CTGGTCCA,-0.198
9,ATACCGCA,-0.229
10,CCGATGCA,0.0988
11,AATACGAT,0.163
12,GTTGGCGA,0.123
13,CCGGATCA,0.212
14,ATACAGGG,0.0749
15,CTCTACTA,-0.141
16,CAGTCTCG,-0.0856
17,ATACGCGA,-0.183
18,ACCGTTGA,-0.167
19,CTGACCCC,-0.212
20,ACACTTAT,0.0454
